Results reported in PubChem BioAssay (NCI).
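Grown in 96-well plates, cells were treated for 48 hours with each compound at five concentrations. Insufficient inhibition: endpoint recorded as highest concentration tested. GI50 is the concentration that inhibits growth by half. TGI: concentration producing complete growth inhibition.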

system: NCI-H322M lung; experiment: DTP human tumour cell line panel, 48 h

Structure (SMILES)	GI50 [µM]	TGI [µM]
CCCCC(CC)CN=C(N)NC(N)=NCCCCCCN=C(N)NC(N)=NCC(CC)CCCC (stereo not given)	3.11	9.64
COc1ccc(-c2ccc(/C=N/n3c(COc4ccc(Cl)cc4Cl)nn(CN4CCOCC4)c3=S)o2)c([N+](=O)[O-])c1	25.1	78.3
NC1CC(=O)c2sc(I)cc21 (stereo not given)	–	> 100
COc1ccc(/C=C2\CCCC3=C2N=C2SC(C)=NN2C3c2ccc(OC)c(OC)c2)cc1OC (stereo not given)	45.1	> 100
COC(=O)C(=O)C1(CCC(C)=O)c2ccccc2-c2c(C)ccc(C)c21 (stereo not given)	–	> 100
O=C(O)/C=C\C(=O)N1C/C(=C\c2ccccc2Cl)C(=O)/C(=C/c2ccccc2Cl)C1	4.3	15.6
O=S(=O)(O)c1ccc(O)c2ncc(Cl)cc12	–	> 100
COc1ccc2c(c1)cn1c3ccc(O)cc3nc(N)c21	0.977	11.5
COc1ccc(-c2csc(N(C(=O)N3CCN(c4cc5c(cc4F)c(=O)c(C(=O)O)cn5C4CC4)CC3)c3ccccc3)n2)cc1	2.77	14.9
COc1ccc2c(C)cc(N/N=C(\C)C=O)nc2c1	–	24.8
CCc1ccccc1NC(=O)C(=O)CC(=O)c1sc(Nc2ccccc2)nc1C	–	> 100
CC(C)c1cc(-c2n[nH]c(=O)n2-c2ccc3c(ccn3C)c2)c(O)cc1O	5.26	99.5
COc1ccc2oc(=N)c(C(=O)NCc3ccccc3)cc2c1	–	> 100
CCN(CC)CC(C)Nc1ccc([N+](=O)[O-])c2sc3ccccc3c(=O)c12 (stereo not given)	1.84	8.62
Cc1c(C(=O)C/C(=N\O)C(=O)Nc2cc(Cl)c(Cl)cc2Cl)[n+](=O)c2ccccc2n1[O-]	–	98.3
O=C(/C=C/c1csc(-c2ccccc2)n1)NCc1ccc(C(=O)NCCc2ccccc2)cc1	–	> 100
C/C(=N/NC(=S)Nc1ccc([N+](=O)[O-])cc1)c1cccc(/C(C)=N\NC(=S)Nc2ccc([N+](=O)[O-])cc2)n1	–	8.44
O=C1C(Br)=CC2(C=C1Br)CCNC1=C2C(=O)c2ccccc2C1=O	–	> 100
CC1=C(C)C(=O)c2c(cc3ccccn23)C1=O	–	52
CCC1C(C#N)=C(N)OC2=C1C(=O)CC(C)(C)C2 (stereo not given)	–	> 100
COC(C(=O)[O][Ge]([CH3])([CH3])[CH3])c1ccccc1 (stereo not given)	> 100	> 100
N#C/C(=C\c1ccc(O)c(O)c1)C(N)=S	–	> 100

Structure (SMILES)	GI50 [µM]	TGI [µM]
CCCNC(=O)c1cc(NC(=O)c2cc(NC(=O)/C=C/c3ccccc3)c(OC)c(OC)c2)c(OC)c(OC)c1	–	31.3
CC1(C)CC(=O)c2c(C(F)(F)F)nn(-c3ccc(C(N)=O)c(NC4CCC(OC(=O)CN)CC4)c3)c2C1 (stereo not given)	25.8	> 100
CN(C)CCNc1c2c(c(NCCN(C)C)c3[nH]ccc13)C(=O)c1ccccc1C2=O	0.67	3.15
CCCC(=O)OC1C(C(O)CO)OC2OC(C)(C)OC21 (stereo not given)	–	> 100
Cn1c(=O)c2c(nc(-n3nc(-c4ccc(Cl)cc4)cc3N)n2C)n(C)c1=O	–	> 100
O=[N+]([O-])C1C2C=CC(C2)[C@H]1c1ccco1 (stereo not given in full)	–	> 100
O=C(CCCCCCC(=O)Nc1ccc(N(CCCl)CCCl)cc1)NO	3.23	20.7
COc1cccc(N=Cc2cc3cc(Br)ccc3nc2Cl)c1	–	> 50
CSc1ccc(C2OC(=O)c3ccccc32)c2ccccc12 (stereo not given)	–	> 100
Cc1cc(N(CCCl)CCCl)ccc1C=Nc1ccc(-c2csc(Cc3ccccc3)n2)cc1	20.8	> 100
NC(=O)c1cc2cc(Cl)cc(Cl)c2oc1=Nc1ccc(F)cc1	–	29.8
CCOC(=O)COc1ccccc1/C=C1\CCC(CN(C)C)C1=O (stereo not given)	–	31.5
Cc1ccc(NC(=O)C(=O)C(C#N)c2ccccc2C)cc1C (stereo not given)	–	> 100
CC(=O)CCCCC(=O)Nc1ccc(CC(NC(=O)OC(C)(C)C)C(=O)NCC(=O)OCc2ccccc2)cc1 (stereo not given)	–	78.3
O=c1c2nn3c(=O)n(-c4ccccc4)c(=O)c3nn2c(=O)n1-c1ccccc1	–	> 100
O=C(/C=C/c1ccccc1)CCN1CCN(CCC(=O)/C=C/c2ccccc2)CC1	–	62.5
Cc1ccccc1[P+](Cc1ccccc1)(c1ccccc1)c1ccccc1	4.09	59
Cn1cc(-c2ccc3occ(-c4cccc(-c5ccncc5)c4)c3n2)cn1	2.41	> 100
CC(=O)N1C(Nc2ccccn2)CCN1c1ccccc1 (stereo not given)	–	> 10
CCCC1(NC(=O)C(F)(F)F)CC(OC)OC2COC(c3ccccc3)OC21 (stereo not given)	–	> 100
CC#C[C@]1(O)CC[C@H]2[C@@H]3CCC4=CC(=O)CCC4=C3[C@@H](c3ccc4c(c3)OCO4)C[C@@]21C	122	862
COc1cc(C(=O)C/C(CCCC(=O)Nc2ccccc2[N+](=O)[O-])=N/NC(=O)c2cc3ccccc3cc2O)ccc1O	–	> 100
